# Measurements reported in PubChem BioAssay (NCATS).
# “And” between values parts separate entries of the source, which are not always exact repeats. Equal entries are not always repeated. The inconclusive results got no clear call from the source; some entries with a clear call stand among them for comparison. A potency beside an inconclusive call is a rough fit, not a confirmed value. For some of these results: A note “side channel” means that the fit belongs to a control or component signal, not to the main read-out. The source made the active and inactive calls. Unless noted, calls follow the shape of the dose curve; as a rule, active = well fitted curve in the direction sought with a large enough effect; inconclusive = small, poorly fitted or top-dose-only effect, or another doubt; inactive = no such curve, though single readings can be large; an effect the other way counts as inactive or inconclusive.
# Experiments:
# [1] = Tertiary RLuc qRT-PCR qHTS assay for Zika virus inhibitors (AID 1347169); also: nearly all actives have a fitted effect of over 55% in size
# Method in brief: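 Vero cells (1,000/well) infected with recombinant ZIKV-RLuc (Cambodian) at MOI 1-2 after compound addition, 48-72 hrs at 37 degrees C. Live-cell Renilla luciferase substrate added; luminescence read after 1-1.5 hrs.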
# [2] = target: Tyrosine-protein phosphatase non-receptor type substrate 1 (Homo sapiens) + Leukocyte surface antigen CD47 (Homo sapiens) (UniProt P78324+Q08722); experiment: CD47-SIRPalpha protein protein interaction - HTRF assay qHTS validation (AID 1347058; active = well fitted curve in the direction sought with a large enough effect in the signal ratio, not every such curve was filed as active; inconclusive = small, poorly fitted or top-dose-only effect, or effect the other way, or a change in a side signal; inactive = no such curve, though single readings can be large or run the other way; the % refers to the signal ratio)
# UniProt P78324, sequence (P78324 whole entry, looked up, the tested form may be a part): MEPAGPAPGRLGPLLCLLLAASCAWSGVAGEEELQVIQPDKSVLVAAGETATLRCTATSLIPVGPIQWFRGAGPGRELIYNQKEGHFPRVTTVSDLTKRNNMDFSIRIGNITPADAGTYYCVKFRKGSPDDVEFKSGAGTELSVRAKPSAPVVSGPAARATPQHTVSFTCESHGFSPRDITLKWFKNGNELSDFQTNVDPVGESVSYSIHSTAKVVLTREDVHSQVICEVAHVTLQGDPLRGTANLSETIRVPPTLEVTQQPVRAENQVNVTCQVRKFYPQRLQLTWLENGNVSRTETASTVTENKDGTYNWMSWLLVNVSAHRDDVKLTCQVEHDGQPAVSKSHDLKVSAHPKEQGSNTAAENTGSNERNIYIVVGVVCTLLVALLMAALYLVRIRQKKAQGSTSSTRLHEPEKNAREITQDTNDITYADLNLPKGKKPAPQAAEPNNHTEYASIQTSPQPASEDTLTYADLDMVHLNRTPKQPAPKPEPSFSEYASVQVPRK
# UniProt P78324, sequence (Q08722 whole entry, looked up, the tested form may be a part): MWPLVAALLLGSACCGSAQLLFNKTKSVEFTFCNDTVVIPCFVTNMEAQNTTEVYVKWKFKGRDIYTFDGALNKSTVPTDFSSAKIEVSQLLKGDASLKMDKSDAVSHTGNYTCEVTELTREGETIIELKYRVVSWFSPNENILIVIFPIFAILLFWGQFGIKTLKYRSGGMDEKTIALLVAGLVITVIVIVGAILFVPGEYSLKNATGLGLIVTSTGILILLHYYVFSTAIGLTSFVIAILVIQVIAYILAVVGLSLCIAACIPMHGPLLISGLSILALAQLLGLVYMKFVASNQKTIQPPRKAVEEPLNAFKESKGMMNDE
# Method in brief: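 TR-FRET read (Ch1/Ch2 ratio) of soluble extracellular CD47 and Avi-biotinylated SIRPalpha domains in PBS pH 7.4 with 0.05% IGEPAL; 7-point compound titration. Sequential 30 min room-temperature steps; non-biotinylated SIRPalpha as control inhibitor.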
# [3] = target: N-terminal Xaa-Pro-Lys N-methyltransferase 1 (Homo sapiens) (UniProt Q9BV86); experiment: qHTS Assay for Inhibitors of N-terminal methyltransferase 1 (NTMT1): LOPAC validation of the NTMT1 SAHH-coupled ThioGlo3 Assay (AID 1347143);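 also: SAH from peptide methylation measured as thiol fluorescence via SAHH coupling and ThioGlo3; nearly all actives have a fitted effect of over 70% in size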; as to activity change, negative = inhibition: % is scaled to controls: 0 for no effect and ±100 for the full control effect
# UniProt Q9BV86, sequence (Q9BV86 whole entry, looked up): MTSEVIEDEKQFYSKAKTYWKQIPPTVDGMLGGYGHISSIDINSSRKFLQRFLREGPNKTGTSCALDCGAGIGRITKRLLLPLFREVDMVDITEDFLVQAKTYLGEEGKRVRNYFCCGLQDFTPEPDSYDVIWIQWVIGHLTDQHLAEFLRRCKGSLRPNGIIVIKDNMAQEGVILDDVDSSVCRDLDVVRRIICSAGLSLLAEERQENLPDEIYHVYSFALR
# Method in brief: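 Inhibition of NTMT1 methylation of peptide SPKRIA is followed by converting SAH with SAHH and labelling the released thiol with ThioGlo3. Plates are read at 340/450nm before and 30 min after reagent addition, both at room temperature.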
# [4] = qHTS to identify inhibitors of the type 1 interferon - major histocompatibility complex class I in skeletal muscle: primary screen against the NCATS LOPAC collection (AID 1347405); details: iHSKM muscle cells, IFN-b-induced MHC-I HiBiT luminescence, 24 h; activity change, negative = inhibition: at 45.9 µM (top of the series);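 also: lytic HiBiT luminescence reporting HLA-B protein level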
# Method in brief: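 CRISPR-engineered immortalized human myoblasts (C25cl48) with HiBiT fused to endogenous HLA-B*08:01, stimulated with 4 ng/ml IFN-beta. LOPAC compounds tested as a 7-point 1:4.3 titration (top 46 uM final), 24 h at 37 C; lytic HiBiT luminescence read.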
# [5] = qHTS of pediatric cancer cell lines to identify multiple opportunities for drug repurposing: Primary screen for U-2 OS cells (AID 1347096); also: nearly all actives have a fitted effect of over 50% in size;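 as to activity change, negative = cytotoxic: plate controls were DMSO wells for no effect and bortezomib positive control wells for full effect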
# Method in brief: (§1)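 Cells (500-1,000/well) rested 5 h, then received compounds for 48 h; metabolically active cells were measured by CellTiter-Glo luminescence. Final concentrations spanned up to 46 µM (MIPE, 11-point) or 0.59 nM-46 µM (NPC, 8-point) in primary screens, 11-point in follow-ups.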
# [6] = qHTS of pediatric cancer cell lines to identify multiple opportunities for drug repurposing: Primary screen for LAN-5 cells (AID 1347100);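 as to activity change, negative = cytotoxic: plate controls were DMSO neutral control for no effect and bortezomib positive control for full effect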
# Method in brief: as §1
# [7] = tested on: WaGa; experiment: qHTS assay to identify novel small-molecules to repurpose for Merkel cell carcinoma treatment (AID 1296009); details: MCC and control cell lines, CellTiter-Glo viability, 72 h; series mostly up to 46 µM; also: nearly all actives have a fitted effect of over 60% in size; as to activity change, negative = cytotoxicity: % is scaled to controls: 0 for no effect and ±100 for the full control effect
# Method in brief: (§2)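 72 hr, 37 degree celsius; NPC 8-pt / MIPE 11-pt dose response; compound pinned in DMSO; CellTiter-Glo, 10 min RT, luminescence; normalized to no-cell and DMSO controls.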
# [8] = qHTS of pediatric cancer cell lines to identify multiple opportunities for drug repurposing: Primary screen for NB1643 cells (AID 1347099); also: nearly all actives have a fitted effect of over 50% in size;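 as to activity change, negative = cytotoxic: plate controls were DMSO neutral control for no effect and bortezomib positive control for full effect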
# Method in brief: (§3)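 500-1,000 cells/well; 5 h pre-incubation 37 °C/5% CO2; compound pinned; 48 h; CellTiter-Glo, 15 min RT; luminescence. MIPE 11-pt from 0.78 nM, NPC 8-pt from 0.59 nM final. Bortezomib 2.3 µM final as positive control.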
# [9] = A High-Content qHTS Against Drug Library for the Identification of Small Molecules that Inhibit DYT1 Early Onset Primary Dystonia-Associated Cell Pathology (AID 1645839; calls by dose curve)
# Method in brief: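 In this high-content image screen, delE TorsinA mislocalization in inducible Flp-In 293 cells is scored as %pathology, with cell count serving as the counterscreen. Compound exposure lasts 48 h under tetracycline induction in reduced-serum medium.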
# [10] = tested on: CP237; experiment: qHTS profiling for inhibitors of Plasmodium falciparum proliferation (AID 504749); also: nearly all actives have a fitted effect of over 60% in size; details: P. falciparum in erythrocytes, SYBR Green DNA, 72 h; series mostly up to 28.7 µM
# Method in brief: (§4)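 Infected RBCs, 0.3% parasitemia/2.5% Hct final; cpd 72 h, 37 C, 5% CO2; lysis buffer with saponin/triton/SYBR Green I, o/n RT dark; FI 485/535; norm. to artemisinin (0.29 uM) and DMSO.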
# [11] = tested on: ICS; experiment: as above; details: P. falciparum in erythrocytes, SYBR Green DNA, 72 h; series mostly up to 28.7 µM
# Method in brief: as §4
# [12] = tested on: MKL-2; experiment: qHTS assay to identify novel small-molecules to repurpose for Merkel cell carcinoma treatment (AID 1296009); details: MCC and control cell lines, CellTiter-Glo viability, 72 h; activity change, negative = cytotoxicity: at 46 µM (top of the series); also: nearly all actives have a fitted effect of over 60% in size; as to activity change, negative = cytotoxicity: % is scaled to controls: 0 for no effect and ±100 for the full control effect
# Method in brief: as §2
# [13] = tested on: astro; experiment: Drug repurposing screens with cells derived from glioblastoma tumor samples (AID 1345199); details: viability, ATP luminescence, 48 h; series mostly up to 45.9 µM; also: nearly all actives have a fitted effect of over 40% in size
# Method in brief: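 Four patient lines of CD133+ GBM neurospheres were screened at several concentrations; hits were retested in those lines plus three slower-growing GBM lines, using 48-hour treatment and ATP-based viability.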
# [14] = tested on: MKL-1; experiment: qHTS assay to identify novel small-molecules to repurpose for Merkel cell carcinoma treatment (AID 1296009); details: MCC and control cell lines, CellTiter-Glo viability, 72 h; activity change, negative = cytotoxicity: at 46 µM (top of the series); also: nearly all actives have a fitted effect of over 60% in size; as to activity change, negative = cytotoxicity: % is scaled to controls: 0 for no effect and ±100 for the full control effect
# Method in brief: as §2
# [15] = P-glycoprotein substrates identified in KB-3-1 adenocarcinoma cell line, qHTS therapeutic library screen (AID 1346986); details: KB-3-1 parental cells viability, CellTiter-Glo, 72 h; also: nearly all actives have a fitted effect of over 60% in size;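 also: potency is for cytotoxicity meaning loss of cell viability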
# Method in brief: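 Cells seeded 500/well in DMEM/10% FCS; compounds pinned in dose-response; 72 h incubation; CellTiter-Glo added, 5 min, luminescence. KB-8-5-11 run ±tariquidar to test reversal of P-gp resistance.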
# [16] = qHTS of pediatric cancer cell lines to identify multiple opportunities for drug repurposing: Primary screen for DAOY cells (AID 1347090); details: DAOY medulloblastoma viability, CellTiter-Glo luminescence, 48 h; activity change, negative = cytotoxic: at 46 µM (top of the series); also: nearly all actives have a fitted effect of over 55% in size;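 as to activity change, negative = cytotoxic: plate controls were DMSO for no effect and bortezomib for full effect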
# Method in brief: (§5)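 Cell viability, CellTiter-Glo luminescence; 500-1,000 cells/well, 8- or 11-point titration, 48 h compound exposure at 37 degrees C, 5% CO2. Controls: DMSO neutral, bortezomib 2.3 µM final as positive.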
# [17] = qHTS of pediatric cancer cell lines to identify multiple opportunities for drug repurposing: Primary screen for SJ-GBM2 cells (AID 1347091)
# Method in brief: as §5
# [18] = qHTS of pediatric cancer cell lines to identify multiple opportunities for drug repurposing: Primary screen for NB-EBc1 cells (AID 1347095);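 as to activity change, negative = cytotoxic: plate controls were DMSO neutral control for no effect and bortezomib for full effect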
# Method in brief: as §3
# [19] = qHTS of pediatric cancer cell lines to identify multiple opportunities for drug repurposing: Primary screen for Rh41 cells (AID 1347108); also: nearly all actives have a fitted effect of over 70% in size;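 as to activity change, negative = cytotoxic: luminescence drop marks cytotoxic hits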
# Method in brief: as §3
# [20] = qHTS of pediatric cancer cell lines to identify multiple opportunities for drug repurposing: Primary screen for SK-N-SH cells (AID 1347098); details: SK-N-SH viability, CellTiter-Glo luminescence, 48 h; activity change, negative = cytotoxic: at 57 µM (top of the series); also: nearly all actives have a fitted effect of over 65% in size
# Method in brief: as §1
# Potency is read from the fitted curve at half-maximal effect; tags tell the direction and shape of the fitted curve.
smiles,measurement,setting,value
CC1CCN(C(c2ccc(F)cc2)c2ccc(C(C)C(=O)O)cc2-c2ccc(C(F)(F)F)cc2)CC1 (stereo not drawn),Potency,[1],active: 6.58 µM
O=[N+]([O-])c1ccc(-c2nc(-c3ccc(F)cc3)c(-c3ccncc3)[nH]2)cc1,Potency,[2],"inconclusive: 9.27 µM [side channel, falling, partial curve]"
same,Potency,[3],"inconclusive: 39.8 µM [inhibitor, partial curve, poor fit]"
same,Potency,[1],active: 4.66 µM
same,Potency,[4],"inconclusive: 25.1 µM [inhibitor, partial curve, poor fit]"
C[C@]12CCC(=O)C=C1[C@@H]1C[C@@H]1[C@H]1[C@@H]3[C@@H]4C[C@@H]4[C@@]4(CCC(=O)O4)[C@@]3(C)CC[C@@H]12,Potency,[5],inactive
same,Potency,[6],inactive
same,Potency,[7],"inconclusive: 21.1 µM [inhibitor, single point]"
O=C(Nc1ccc(Oc2ccc(Cl)cc2)c(Cl)c1)c1cc(I)cc(I)c1O,Potency,[8],"inconclusive: 26.6 µM [cytotoxic, single point]"
same,Potency,[6],"inconclusive: 29.9 µM [cytotoxic, single point]"
same,Potency,[1],"inconclusive: 437 nM [inhibitor, single point] and active: 26.2 µM"
same,Potency,[9],"inconclusive: 6.31 µM [inhibitor, full curve, poor fit]"
same,Potency,[10],"inconclusive: 11.2 µM [inhibitor, single point]"
same,Potency,[11],"inconclusive: 11.2 µM [inhibitor, single point]"
same,Potency,[12],inactive
same,Potency,[13],"inconclusive: 25.1 µM [inhibitor, single point]"
NNC(=O)CP(=O)(c1ccccc1)c1ccccc1,Potency,[10],inactive
same,Potency,[11],inactive
same,Potency,[14],inactive
Nc1nc(N)c(N=O)c(OCC2CCCCC2)n1,Potency,[15],"inconclusive: 32.6 µM [inhibitor, single point]"
same,Potency,[2],"inconclusive: 4.65 µM [side channel, falling, partial curve]"
same,Potency,[16],"inconclusive: 18.7 µM [cytotoxic, partial curve]"
same,Potency,[17],active: 9.35 µM
same,Potency,[18],"inconclusive: 18.7 µM [cytotoxic, partial curve]"
same,Potency,[5],"inconclusive: 23.5 µM [cytotoxic, partial curve]"
same,Potency,[6],"inconclusive: 23.5 µM [cytotoxic, single point]"
same,Potency,[19],"inconclusive: 6.62 µM [cytotoxic, partial curve]"
same,Potency,[3],inactive
same,Potency,[4],"inconclusive: 28.2 µM [inhibitor, single point]"
same,Potency,[14],"inconclusive: 29.6 µM [inhibitor, single point]"
same,Potency,[12],"inconclusive: 8.33 µM [inhibitor, partial curve]"
same,Potency,[7],"inconclusive: 18.7 µM [inhibitor, partial curve]"
CCN1CCN(Cc2ccc(NC(=O)c3ccc(C)c(NC(=O)c4cncc(-c5cccs5)c4)c3)cc2C(F)(F)F)CC1,Potency,[15],active: 2.06 µM
CC(=O)Oc1ccc2c(c1)CC[C@@H]1[C@@H]2CC[C@]2(C)[C@@H](O)CC[C@@H]12,Potency,[17],"inconclusive: 23.7 µM [cytotoxic, single point]"
same,Potency,[18],"inconclusive: 21.1 µM [cytotoxic, single point]"
same,Potency,[20],"inconclusive: 13.7 µM [cytotoxic, partial curve]"
same,Potency,[6],"inconclusive: 33.5 µM [cytotoxic, single point]"
same,Potency,[19],inactive
same,Potency,[9],inactive
same,Potency,[14],"inconclusive: 33.5 µM [inhibitor, single point]"
same,Potency,[7],"inconclusive: 29.9 µM [inhibitor, single point]"
same,Potency,[13],"inconclusive: 20 µM [inhibitor, partial curve]"
CS(=O)(=O)c1ccc([C@@H](O)[C@@H](CF)NC(=O)C(Cl)Cl)cc1,Potency,[18],inactive
same,Potency,[8],inactive
same,Potency,[19],inactive
same,Potency,[9],inactive
same,Potency,[14],inactive
Nc1nc(Nc2ccc3c(c2)CCC(N2CCCC2)CC3)nn1-c1cc2c(nn1)-c1ccccc1CCC2 (stereo not drawn),Potency,[15],active: 11.6 µM
C[C@]12CC[C@@H]3c4ccc(O)cc4C[C@@H](CCCCCCCCCS(=O)CCCC(F)(F)C(F)(F)F)[C@H]3[C@@H]1CC[C@@H]2O (stereo partly drawn),Potency,[16],inactive
same,Potency,[17],"inconclusive: 13.3 µM [cytotoxic, partial curve, poor fit]"
same,Potency,[20],"inconclusive: 0.0061 µM [cytotoxic, full curve, poor fit]"
same,Potency,[9],"inconclusive: 6.31 µM [inhibitor, single point]"
same,Potency,[12],"inconclusive: 4.22 µM [inhibitor, full curve, poor fit]"
CCCOC(C(=O)OC1CCN(C)CC1)(c1ccccc1)c1ccccc1,Potency,[18],"inconclusive: 11.9 µM [cytotoxic, partial curve, poor fit]"
same,Potency,[20],"inconclusive: 24.4 µM [cytotoxic, single point]"
same,Potency,[19],inactive
same,Potency,[9],"inconclusive: 35.5 µM [inhibitor, partial curve, poor fit]"
same,Potency,[10],"inconclusive: 10 µM [inhibitor, single point]"
same,Potency,[11],active: 7.94 µM
same,Potency,[12],"inconclusive: 21.1 µM [inhibitor, partial curve]"
same,Potency,[13],"inconclusive: 7.94 µM [inhibitor, partial curve]"
CCCCN(CC)c1nc(C)nc2c1c(C)cn2-c1c(C)cc(C)cc1C,Potency,[2],"inconclusive: 26.1 µM [side channel, falling, single point]"
same,Potency,[3],"inconclusive: 79.4 µM [inhibitor, partial curve]"
same,Potency,[1],"inconclusive: 26.1 µM [inhibitor, single point]"
same,"activity change, negative = inhibition",[4],inconclusive: -43.1% [inhibitor]
CCCCC(=O)OCC(=O)[C@H]1[C@H](C)C[C@H]2[C@@H]3C[C@H](F)C4=CC(=O)C=C[C@]4(C)[C@@]3(F)[C@@H](O)C[C@@]21C,Potency,[19],inactive
COc1ccc(S(=O)(=O)N2c3ccc(Cl)cc3[C@@](O)(c3ccccc3Cl)[C@H]2C(=O)N2CCC[C@@H]2C(N)=O)cc1OC,Potency,[20],inactive
same,Potency,[8],inactive
same,Potency,[13],inactive
CCCCCCCCCCCCOS(=O)(=O)O,Potency,[16],inactive
same,Potency,[5],inactive
same,Potency,[8],inactive
CC(CCC1C(C(=O)O)=CC(=O)CC1(C)C)O[C@@H]1O[C@H](CO)[C@@H](O)[C@H](O)[C@H]1O (stereo partly drawn),Potency,[15],inactive
